# ± gives the standard deviation of the averaged measurements. Over roughly 33,000 sequences, “E-score (dimensionless, -0.5 to 0.5)” has its median near -0.049; the highest 2% begin near 0.37. This is one part of the list.
# Tested on: T1, PmTbr T-box DNA-binding domain (GST fusion)
# T1 sequence: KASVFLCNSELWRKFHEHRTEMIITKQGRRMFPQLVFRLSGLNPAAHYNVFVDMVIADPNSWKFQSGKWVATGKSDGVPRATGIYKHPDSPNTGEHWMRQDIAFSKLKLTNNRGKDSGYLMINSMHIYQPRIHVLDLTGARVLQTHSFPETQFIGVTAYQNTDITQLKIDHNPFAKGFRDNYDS
# Experiment: PBM E-score of 8-mer (E-score (dimensionless, -0.5 to 0.5)); Tbr is Tbrain of the sea star Patiria miniata (Pm) or the sea urchin Strongylocentrotus purpuratus (Sp); higher = stronger binding preference; most listed sequences are background and not binding sites
# Details: the construct has about 5 more residues each side
# Outline: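 Universal Agilent oligonucleotide arrays, made double-stranded by primer extension, were incubated with 200 nM GST-fused Tbr T-box DNA-binding domain in PBS (pH 7.5). The protein was expressed in BL21 E. coli at 20 °C and purified by glutathione affinity chromatography. After scanning and quantification, the Universal PBM Analysis Suite assigned an enrichment E-score to each ungapped 8-mer, averaged over duplicate arrays.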
row,Sequence,PBM E-score of 8-mer
1,CAACACCG,0.3 ± 0.013
2,CTATAGTC,0.0257 ± 0.0081
3,ACTTACAA,-0.00796 ± 0.07
4,AAGAGTAA,-0.144 ± 0.0032
5,ATTCCTCG,-0.0674 ± 0.053
6,AACCGTAT,-0.12 ± 0.061
7,CAAACGGC,-0.0305 ± 0.062
8,AAGCTGAC,-0.0246 ± 0.033
9,CCGGCATC,-0.299 ± 0.01
10,ATTGAAGG,-0.107 ± 0.068
11,CCTGTGAC,0.309 ± 0.013
12,AGCGTAGC,-0.0635 ± 0.038
13,GAGATTGC,0.201 ± 0.018
14,CCTTCGTC,0.16 ± 0.011
15,CTCCGCCC,-0.11 ± 0.003
16,GCAGAGTA,-0.0658 ± 0.073
17,GAGTATTA,-0.102 ± 0.014
18,AATAGCGG,-0.0637 ± 0.035
19,ACCGCAGT,-0.195 ± 0.14
20,GAGCCCGA,-0.29 ± 0.0082
21,ACCGACCC,0.00535 ± 0.068
22,AAAAGGAC,-0.0773 ± 0.053
23,AACCACTG,-0.294 ± 0.0095
24,CCGAACCA,-0.102 ± 0.014
25,TCGGAGCA,-0.0542 ± 0.0025

row,Sequence,PBM E-score of 8-mer
1,AAATGCCG,0.0146 ± 0.012
2,CCCTCTAC,-0.151 ± 0.004
3,AATGATTC,-0.259 ± 0.021
4,AGCCCGCA,-0.0489 ± 0.053
5,ACCTGAGA,0.185 ± 0.024
6,GGACCCAC,-0.11 ± 0.12
7,CACGAGCG,0.0861 ± 0.0097
8,GGCACAAA,-0.184 ± 0.024
9,GACAAAGA,0.17 ± 0.068
10,CAGTGTAA,-0.0163 ± 0.029
11,CACTCCTC,0.233 ± 0.037
12,AGCTCCGG,-0.193 ± 0.064
13,CTACGACC,-0.416 ± 0.016
14,AACCATTA,-0.0792 ± 0.07
15,AGGAGCTC,-0.304 ± 0.028
16,CCGGTCTA,-0.167 ± 0.071
17,GAGGATGA,-0.0848 ± 0.045
18,AGACCATC,-0.269 ± 0.029
19,CAGGTCTA,-0.152 ± 0.069
20,ACGGAAGA,-0.124 ± 0.1
21,ATATTATA,-0.157 ± 0.025
22,ATACACCG,-0.00419 ± 0.051
23,AAGCGGCC,0.00238 ± 0.056
24,CGGCCTGA,-0.111 ± 0.027
25,CCGTACCG,-0.13 ± 0.044

row,Sequence,PBM E-score of 8-mer
1,ATTTAGAA,-0.16 ± 0.02
2,CTGGTCAA,-0.117 ± 0.004
3,CTAGACCA,-0.132 ± 0.0065
4,AAGTCTCA,0.106 ± 0.067
5,AACGCATC,-0.1209 ± 0.001
6,CTAATGAA,-0.131 ± 0.0059
7,AAAGATAG,-0.22 ± 0.0093
8,AGTTAAGC,-0.187 ± 0.051
9,ACTAACAC,0.412 ± 0.007
10,CGCGAAAA,0.359 ± 0.019
11,CCTAATCG,-0.0939 ± 0.05
12,CTTTTGAA,-0.235 ± 0.034
13,CTTGGAGA,0.0274 ± 0.0082
14,ATAATACG,-0.115 ± 0.035
15,CAGGCCCG,-0.108 ± 0.032
16,ACATACTG,0.188 ± 0.01
17,CACTCACG,0.179 ± 0.053
18,AACGGAAA,-0.2 ± 0.055
19,CGGTGCTC,-0.142 ± 0.053
20,AGTCTCGA,0.0498 ± 0.099
21,CTTCTCCC,-0.0169 ± 0.055
22,GTCCAGCA,-0.278 ± 0.015
23,CTGATACC,-0.0852 ± 0.013
24,CGGCGCTC,-0.00875 ± 0.12
25,TCGCGTAA,0.165 ± 0.013

row,Sequence,PBM E-score of 8-mer
1,AGAAATCG,0.0228 ± 0.017
2,GACTCATA,-0.131 ± 0.036
3,CTTTGTGA,0.028 ± 0.0037
4,CCTTCTCA,0.0208 ± 0.064
5,ACCCGGCC,-0.111 ± 0.024
6,AAAGAGTA,-0.0841 ± 0.045
7,AGCTTTGA,-0.203 ± 0.069
8,CGGAAGTC,-0.222 ± 0.029
9,CCTGAAAG,-0.2 ± 0.0059
10,GATTGGTA,-0.156 ± 0.024
11,AGGCAACG,0.0377 ± 0.055
12,GACCCCTC,-0.0517 ± 0.095
13,GACCACAC,0.198 ± 0.029
14,GCGCGCGC,0.0545 ± 0.0052
15,GGCCCTAC,-0.257 ± 0.08
16,CAGGGTAC,-0.0666 ± 0.085
17,CAGCCGGC,-0.0661 ± 0.03
18,AACCCGAT,0.0292 ± 0.021
19,AGAAGGCT,0.00817 ± 0.029
20,GGGAGTGA,0.221 ± 0.028
21,CTAACCAA,-0.135 ± 0.064
22,CCTGACCC,-0.188 ± 0.0044
23,CAGCGCTA,0.127 ± 0.046
24,TACGGTAA,-0.198 ± 0.065
25,CCTCGAAG,-0.0465 ± 0.028

row,Sequence,PBM E-score of 8-mer
1,AGGTTATA,0.0771 ± 0.0077
2,ATAAAGTC,-0.175 ± 0.031
3,CCGTAGTA,-0.0769 ± 0.078
4,GGCTTCAA,-0.121 ± 0.014
5,GCTGAACA,-0.128 ± 0.022
6,ATACTGAT,-0.0813 ± 0.025
7,ACAAAATA,0.017 ± 0.12
8,CCGAACAG,-0.1 ± 0.012
9,CGTGTAGC,-0.0922 ± 0.01
10,GATGAATC,-0.0796 ± 0.01
11,ACTCTAAC,-0.0797 ± 0.08
12,CTATACTC,-0.198 ± 0.0082
13,AGCCGCCC,-0.28 ± 0.029
14,CTCGCGGC,0.0944 ± 0.043
15,AGTCGCAC,0.395 ± 0.026
16,AATTCTTG,-0.0858 ± 0.019
17,CGATTCCC,-0.0208 ± 0.012
18,AGTGAGTG,0.0934 ± 0.016
19,ATCCCTTC,-0.218 ± 0.047
20,ACTCTCCA,-0.107 ± 0.026
21,AACGACGC,0.156 ± 0.024
22,CAACCCGC,0.0688 ± 0.0075
23,CGCCCAAA,-0.0907 ± 0.0051
24,CGCTGAAC,-0.00978 ± 0.092
25,GCCAGTGA,-0.0707 ± 0.048

row,Sequence,PBM E-score of 8-mer
1,ACATCACC,0.16 ± 0.02
2,CCATAAAA,-0.197 ± 0.0037
3,ACAATATG,0.148 ± 0.0069
4,CACTTACG,0.2808 ± 0.0006
5,AACGCCTG,0.3181 ± 0.002
6,CTTGAACC,-0.197 ± 0.054
7,AATATATT,-0.265 ± 0.13
8,GACAGCCA,0.146 ± 0.078
9,TCACAGAA,0.11 ± 0.041
10,GCGGGCTA,-0.365 ± 0.024
11,GATTACTA,-0.171 ± 0.037
12,AAACCCCG,-0.028 ± 0.019
13,ACGAGCAT,-0.0716 ± 0.032
14,CCGTACTA,-0.0976 ± 0.028
15,CACTAGCG,0.1821 ± 0.0004
16,CCAGGGTA,-0.0692 ± 0.069
17,CAAGCCTA,-0.112 ± 0.044
18,CTTTGGAC,-0.0263 ± 0.0036
19,ATTCTCGG,-0.082 ± 0.071
20,GTCACCAC,0.314 ± 0.04
21,ACCAACGA,0.0332 ± 0.14
22,CAAGGTCC,-0.3337 ± 0.001
23,AGCTTTCG,0.0201 ± 0.044
24,GCACAAGA,-0.0781 ± 0.058
25,TCCCGAGA,-0.111 ± 0.043

row,Sequence,PBM E-score of 8-mer
1,ACGTTACG,-0.0194 ± 0.015
2,TATCCCAA,-0.225 ± 0.094
3,ACGACACG,0.225 ± 0.062
4,GTAACCCA,-0.215 ± 0.011
5,AGACTTAG,-0.142 ± 0.014
6,AGGAACAA,0.0169 ± 0.026
7,ACTAAGAA,-0.242 ± 0.021
8,TATGAGGA,-0.247 ± 0.064
9,AGTTCGGC,-0.142 ± 0.0066
10,TACATTGA,-0.105 ± 0.017
11,CCTAGTTA,-0.121 ± 0.084
12,CATCGTAG,-0.1 ± 0.022
13,CCCACTCA,0.0959 ± 0.087
14,ACGAGTCC,-0.261 ± 0.054
15,GGCCATAC,-0.166 ± 0.0026
16,GGACCAAA,-0.308 ± 0.018
17,ACGCTTAC,0.0592 ± 0.021
18,CATATCAC,0.32 ± 0.021
19,ATTGTAGC,-0.0784 ± 0.022
20,ATCTATCC,-0.142 ± 0.049
21,AGGTATCA,0.201 ± 0.046
22,CCGAACAC,0.241 ± 0.053
23,TCGTAAGA,-0.15 ± 0.061
24,GTGTAACA,0.252 ± 0.042
25,AAGAGAAT,-0.269 ± 0.037

row,Sequence,PBM E-score of 8-mer
1,ATTGCTAC,-0.162 ± 0.067
2,GTAGTCAA,-0.128 ± 0.023
3,AAGTGTTC,0.298 ± 0.012
4,CGGGAACC,-0.0755 ± 0.052
5,AAGTATGA,-0.0407 ± 0.00071
6,GGATAGCC,-0.269 ± 0.045
7,AGTTAAAA,-0.129 ± 0.068
8,GCCCCTAC,-0.113 ± 0.049
9,ACAAGGTA,-0.0243 ± 0.03
10,AATAGCGC,0.213 ± 0.075
11,GGTCCACA,-0.0309 ± 0.11
12,AACACTCG,0.237 ± 0.037
13,CTGGCCCC,-0.154 ± 0.047
14,CTACTGGC,0.114 ± 0.025
15,CTCTGAGC,-0.0449 ± 0.047
16,AAAGGACC,-0.21 ± 0.074
17,CTCCAGCA,-0.143 ± 0.057
18,ATGACCAA,-0.183 ± 0.0051
19,CTCGTCCA,-0.0274 ± 0.078
20,AAGATCGA,-0.152 ± 0.084
21,GTCATGAA,-0.131 ± 0.042
22,AATGTGAT,0.258 ± 0.039
23,AGGCTACT,-0.0367 ± 0.044
24,AGCGCACC,0.0793 ± 0.0084
25,GATTCACC,-0.167 ± 0.0053

row,Sequence,PBM E-score of 8-mer
1,GTCGACCA,-0.0969 ± 0.041
2,ACGGTCGC,0.204 ± 0.02
3,AGGGTGTA,0.317 ± 0.0034
4,AAATGAGG,-0.179 ± 0.079
5,ATGTCGAC,0.0957 ± 0.04
6,GCCTCGCC,-0.0175 ± 0.055
7,AAACTCCG,0.0185 ± 0.0063
8,GTATATAC,0.0688 ± 0.066
9,ACCTTTAA,0.0452 ± 0.075
10,TCGACGCA,0.0353 ± 0.051
11,CTGTCATC,0.141 ± 0.036
12,CATTAAGC,-0.165 ± 0.091
13,GGCCAAAA,-0.204 ± 0.0029
14,AGATGCGG,-0.166 ± 0.021
15,CCAACCTA,-0.078 ± 0.018
16,CATAACAC,0.42 ± 0.0089
17,CACCATAG,0.248 ± 0.028
18,CATGCAAA,-0.1553 ± 0.001
19,CATCTCAG,-0.134 ± 0.067

# Source: the supplement of paper PMC4166925
